Assay results taken from PubChem BioAssay AID463173 (ICCB-Longwood Screening Facility, Harvard Medical School, 2010).
Screen size: about 52,000 compounds; about 1,700 (3.3%) were called active. Cut-off read from the data, not from the text of the source: active = survival mostly below about 52% (no sharp cut-off); inactive = mostly above about 56%. The list shows a part of the results.

The compounds below were run on Wild type (assay: growth inhibition of S. aureus wild type versus tarO mutant, primary screen, teichoic acid synthesis inhibitors, RN4220, OD600 (AID 463173)). Details: S. aureus RN4220 wild type/DeltatarO growth, OD600, 18 h, stronger effect = lower value, screened at 18.75 µg/mL (by protocol).

SMILES	survival
CCc1ccc(NS(=O)(=O)c2c(-c3ccccc3)csc2C(=O)OC)cc1	inactive: 77%
Cc1cc(NCc2ccc(Cl)cc2)n2cnnc2n1	inactive: 94%
COc1ccccc1N(CC(=O)Nc1cc(C)cc(C)c1)S(C)(=O)=O	inactive: 87%
O=C(Nc1nnc(S(=O)(=O)N2CCCCCC2)s1)c1ccccc1	inactive: 48%
CCC(=O)Nc1cccc(OCc2cc(=O)n3cc(C)ccc3n2)c1	inactive: 47%
COC(=O)c1ccc(Oc2nc3c(c(=O)n(C)c(=O)n3C)n2Cc2ccc(Cl)c(Cl)c2)cc1	inactive: 135%
CCOC(=O)c1cc2ccc(O)cc2oc1=O	inactive: 103%
Cc1ccccc1NC(=O)Cn1cc(S(=O)(=O)N2CCCC2)c(S(=O)(=O)N2CCCC2)c1	inactive: 72%
CC1=C(C(=O)Nc2ccccc2)C(c2ccccn2)n2nc(SCc3ccccc3Cl)nc2N1 (centres undefined)	inactive: 148%
CC(C)n1c(C(=O)OC(C(=O)NCc2ccco2)c2cccnc2)cc2sccc21 (centres undefined)	inactive: 98%
CCOc1ccc(NC(=O)c2nnn(-c3ccc(F)c(Cl)c3)c2C)cc1	inactive: 90%
COc1ccc(NC(=O)c2oc3ccccc3c2NC(=O)C23CC4CC(CC(C4)C2)C3)cc1	inactive: 15%
COc1ccc(OC)c(NC(=O)c2c(NCc3ccc(N(C)C)cc3)sc3c2CCCC3)c1	inactive: 135%
COc1ccc(S(=O)(=O)N(CC(=O)Nc2ccc3c(c2)OCO3)c2ccc(C)cc2)cc1	inactive: 68%
O=C(NCc1ccccc1Cl)c1ccc(NC(=O)N2CCSc3ccccc32)cc1	inactive: 67%
COc1cc(OC)cc(C(=O)Nc2ccc3c(c2)n(C)c(=O)c(=O)n3C)c1	inactive: 81%
Cc1ccc(OCc2cc(=O)n3c4c(sc3n2)CCCC4)cc1C	inactive: 80%
O=C(NCCCc1ccccc1)c1nn(-c2ccccc2)nc1CO	inactive: 92%
Cn1cc(S(=O)(=O)N2CCCCC2)cc1C(=O)Nc1ccc(OC(F)(F)F)cc1	inactive: 91%
O=C(Cn1cc(S(=O)(=O)c2ccccc2)c(=O)c2cc3c(cc21)OCO3)Nc1ccccc1	inactive: 133%
Cc1nc2nc(SCC(=O)NC3CCC(C)CC3)nn2c(C)c1Cc1ccccc1Cl (centres undefined)	inactive: 82%
Cc1ccc(S(=O)(=O)C(CNC(=O)c2ccc(C(F)(F)F)cc2)c2ccco2)cc1 (centres undefined)	inactive: 134%
Cc1noc(-c2ccc(-c3noc(-c4cccc(Cl)c4)n3)cc2)n1	inactive: 75%

SMILES	survival
CCc1ccc2occ(CC(=O)Nc3sc4c(c3C(=O)NCCOC)CCCC4)c2c1	inactive: 84%
CCn1cc2nc(SCc3cccc(C)c3)n(CCc3ccccc3)c(=O)c2n1	inactive: 83%
Cc1nc2c(-c3ccccc3)c(C)nn2c(C)c1CCC(=O)NCc1ccccc1	inactive: 76%
Cc1ccc(S(=O)(=O)n2nc(-c3ccco3)nc2NCc2ccc(N(C)C)cc2)cc1	inactive: 95%
CCOC(=O)c1ccc(NC(=O)CCC(=O)N2CCSc3ccccc32)cc1	inactive: 91%
CCc1ccc2oc(-c3ccc(C)c(NC(=O)c4ccc(C#N)cc4F)c3)nc2c1	inactive: 72%
CCOC(=O)C1CCCN(C(=O)c2ccc3c(c2)N(Cc2ccccc2F)C(=O)c2ccccc2S3=O)C1 (centres undefined)	inactive: 90%
COc1ccc(CCNC(=O)CCn2c(=O)c3ccccc3n(CC(=O)Nc3cc(Cl)ccc3C)c2=O)cc1OC	inactive: 76%
CC(=O)c1cccc(NC(=O)CCCSc2nc(-c3ccco3)cc(C(F)(F)F)n2)c1	inactive: 52%
COc1ccc2c(c1)c(=O)c(S(=O)(=O)c1ccccc1)cn2CC(=O)Nc1ccc2c(c1)OCO2	inactive: 71%
CCCN(C(=O)Cn1ncc2c([nH]c3ccccc32)c1=O)c1ccc(F)cc1	inactive: 95%
O=C(CCn1nc(-c2ccccc2)c2ccccc2c1=O)Nc1cccnc1	inactive: 119%
CCc1ccccc1NC(=O)Nc1cc(C(=O)NCc2ccccc2OC)ccc1N1CCCC1	inactive: 72%
COc1ccc(NC(=O)CN2C(=O)C(c3ccc(C)cc3)=NC23CCCCCC3)cc1Cl	inactive: 92%
COc1cccc(-c2nc(SCC(=O)NCC3CCCO3)c(-c3ccc(Cl)cc3)[nH]2)c1 (centres undefined)	inactive: 68%
CN(C)CCNC(=O)C(=O)NCC(c1cccnc1)N1CCN(c2ccccc2)CC1 (centres undefined)	inactive: 83%
Cc1ccc(NC(=O)c2ccc(CNS(=O)(=O)c3ccc4c(c3)C(C)(C)C(=O)N4C)cc2)cc1	inactive: 105%
COc1ccc(N2CCN(C(=O)Cn3c(-c4cccs4)cc4ccccc43)CC2)cc1	inactive: 99%
Cc1ccc(C)c(Cn2c(=O)n(-c3ccc(F)cc3)c(=O)c3sc4ccccc4c32)c1	inactive: 82%
Clc1cccc(-n2ncc3c(Nc4ccc5c(c4)OCCO5)ncnc32)c1	inactive: 47%
O=C(CSc1nc2ccsc2c(=O)n1Cc1ccccc1F)NCc1ccccc1Cl	inactive: 120%
CSc1nnc(-c2ccncc2)n1C	inactive: 110%
CC(=O)N1CCc2cc(S(=O)(=O)NC(Cc3ccccc3)C(=O)Nc3ccc(C)cc3C)ccc21 (centres undefined)	inactive: 74%

SMILES	survival
O=C(Nc1cccc(Cl)c1Cl)c1cc(S(=O)(=O)N2CCCc3ccccc32)ccc1F	inactive: 85%
COc1cc(OC)c(N(C)C(=O)CSc2c3c(nc4ccc(Cl)cc24)CCCC3)cc1Cl	active: 2%
COc1ccc(CC(=O)NCC2OCCc3ccccc32)cc1OC (centres undefined)	inactive: 112%
Cc1ccc(C(=O)Nc2ccc3oc(-c4cc(Br)ccc4Cl)nc3c2)cc1	inactive: 89%
CCc1ccc(NC(=O)CC2C(=O)N(c3ccc(OC)cc3)C(=O)N2Cc2cccs2)cc1 (centres undefined)	inactive: 75%
Cc1cc(=O)[nH]c(SC(C)C(=O)NC2CCCCC2)n1 (centres undefined)	inactive: 100%
O=C(O)C1CC=CCC1C(=O)N1CCCC1 (centres undefined)	inactive: 112%
CCOC(=O)c1cnc2c(C)cc(C)cc2c1Nc1ccccc1OCC	active: -1%
COc1ccc(C(=O)Nc2ccc3oc(-c4cc(Cl)ccc4Cl)nc3c2)cc1Br	inactive: 76%
Cc1nn2c(-c3ccco3)ccnc2c1-c1ccc(Cl)cc1	inactive: 82%
COC(=O)c1c(NC(=O)/C=C/c2ccc(OC)cc2)sc2c1CCC2	inactive: 85%
CC(C)c1cnc2c(c1SCC(=O)Nc1ccc(C(N)=O)cc1)c(=O)n(C)c(=O)n2C	inactive: 71%
CCOC(=O)Cn1c(-c2cccs2)cc2cc(Cl)ccc21	inactive: 30%
COc1ccc(CNC(=O)CSc2ncc3c(n2)-c2cc(Cl)ccc2N(C)S3(=O)=O)cc1	inactive: 59%
CN(CCCNC(=O)c1cc2c(=O)n(C)c3ccccc3c2s1)Cc1ccccc1	inactive: 77%
O=C(Cn1c(=O)n(-c2ccccc2)c(=O)c2ccc(C(=O)NCc3ccc4c(c3)OCO4)cc21)Nc1ccc(F)c(Cl)c1	inactive: 77%
COc1ccc(N(C(=O)c2cccc(C)c2)S(=O)(=O)c2ccc3c(c2)n(C)c(=O)n3C)cc1	inactive: 79%
CCOC(=O)c1cc(OC(=O)c2ccccc2OC)n(-c2ccccc2)n1	inactive: 68%
CCN1C(=O)c2ccccc2Sc2ccc(NC(=O)c3cccc(C)c3)cc21	inactive: 80%
Cc1ccc(NC(=O)Nc2cccs2)c(C)c1	inactive: 86%
CC(C(=O)O)N1C(=O)/C(=C/c2ccco2)SC1=S (centres undefined)	inactive: 106%
COC(=O)Cn1c2ccccc2c2nc(C)sc21	inactive: 92%
COc1ccc(CCNC(=O)c2ccc3c(c2)N(Cc2cccc(Cl)c2)C(=O)c2ccccc2S3=O)cc1OC (centres undefined)	inactive: 75%

SMILES	survival
Cc1cccc(CC(=O)NCCc2sc3nc(-c4ccc(F)cc4)nn3c2C)c1	inactive: 119%
CN(C)CC(O)C1CCOC(C)(C)C1 (centres undefined)	inactive: 111%
COc1ccc(OCC(=O)N(Cc2ccc(C)o2)C2CCS(=O)(=O)C2)cc1 (centres undefined)	inactive: 94%
c1ccc2c(c1)[nH]c1nc(NN=C3CCC(=NNc4nnc5c(n4)[nH]c4ccccc45)CC3)nnc12	inactive: 108%
CCOc1ccc(CCNC(=O)c2ccc(-c3nc(CSc4ccccc4)c(C)o3)cc2)cc1	inactive: 87%
CCC(C)NC(=O)CSCc1nc(-c2ccc(C)cc2)oc1C (centres undefined)	inactive: 82%
O=C(c1ccccc1Br)N(Cc1ccccc1F)C1CCS(=O)(=O)C1 (centres undefined)	inactive: 114%
CN1CCN(C(=O)c2ccc3c(c2)N(Cc2ccc(Cl)cc2)C(=O)c2ccccc2S3(=O)=O)CC1	inactive: 90%
CCc1ccc(N(CC)C(=O)c2sc3nc4n(c(=O)c3c2C)CCCC4)cc1	inactive: 75%
COc1ccccc1NC(=O)CN1C(=O)CCSc2ccccc21	inactive: 77%
CCOC(=O)C1(C(=O)OCC)CC1(C(=O)OCC)C(=O)OCC	inactive: 105%
Cc1cccc(NS(=O)(=O)c2ccc3c(c2)CCN3C(=O)C2CC2)c1C	inactive: 70%
Cn1nnnc1SCCCNCc1ccccc1OCc1ccc(F)cc1	inactive: 89%
CCN(C(=O)c1cn(C)c(=O)c2ccccc12)c1cccc(C)c1	inactive: 143%
Cc1ccc(Cl)cc1NC(=O)CSCc1cnn(-c2ccccc2)c1-n1cccc1	inactive: 78%
O=C(Cn1c(=O)ccc2cc(S(=O)(=O)N3CCCC3)ccc21)Nc1ccc(Cl)cc1	inactive: 81%
COc1cccc(Cn2c(=O)n(CCc3ccccc3)c(=O)c3c2c2cc(OC)ccc2n3C)c1	inactive: 55%
Cc1ccc(Cl)cc1NC(=O)C1CCN(S(=O)(=O)c2cccc3nonc23)CC1	inactive: 109%
COc1ccc(C(=O)NNc2ncnc3c2cnn3-c2ccc(C)c(Cl)c2)cc1	inactive: 73%
COc1ccc(NC(=O)c2c(NC(=O)c3ccncc3)sc3c2CCC(C(C)(C)C)C3)cc1 (centres undefined)	inactive: 47%
